System: Ba/F3-FL-TYK2-P760L cells
Assay: Anti-proliferative assay in Ba/F3-FL-TYK2-P760L cells (Cell-Titer Glo)
Type: cell-based
Details: 72 h, read-out: Baf3-FL-T2P760L (nM)

[2H]C([2H])([2H])NC(=O)c1cnc(NC(=O)C2CC2)cc1Nc1ncc2cnn(COCC[Si](C)(C)C)c2c1OC [Example 1, 6-(Cyclopropanecarboxamido)-4-((7-methoxy-1-((2-(trimethylsilyl)ethoxy)methyl)-1H-pyrazolo[4,3-c]pyridin-6-yl)amino)-N-(methyl-d3)nicotinamide]
IC50: 442 nM

From patent publication US20260284066A1, “TYK2 INHIBITORS AND COMPOSITIONS AND METHODS THEREOF” (LYNK PHARMACEUTICALS CO. LTD., priority 2023, published 2026)
